The subject of test [1] is Human Coronavirus (COVID-19).
The test system of test [2] is Human Coronavirus (COVID-19). Description: microbe, parasite or virus in culture. As to conditions: unidentified human coronavirus; for log reduction at 1 µM / log reduction at 10 µM: read-out: Log Difference.
Setting [3] is: read-out: Reduction %, Table S3, 1 µM.
Setting [4] is: read-out: Reduction %, Table S3, 10 µM.
The mark [5] stands for this setting: read-out: Reduction %, Table S4.

Structures are written as SMILES. Where two headings read alike, the source gives them in different places.

One may read the EC50 as the concentration giving half of the maximal effect. Read a high EC50 as weaker potency.

Regarding `O=c1cc(-c2ccc(O)cc2)oc2c([C@@H]3O[C@H](CO)[C@@H](O)[C@H](O)[C@H]3O)c(O)cc(O)c12` [Compound 3, vitexin], in test [1] (Table S3, 1 µM), the “Viral Titer IU/ml” value was 1256387.904 IU/ml and the “Viral Titer Log” value turned out to be 6.099. For the same compound, in test [1] (Table S3, 10 µM), the “Viral Titer IU/ml” value is listed as 691102.3995 IU/ml and the “Viral Titer Log” value is reported as 5.84. In test [2], the inhibition at 1 µM stood at 20.5%, the inhibition at 10 µM was found to be 56.3%, the log reduction at 1 µM is 0.0996 and the log reduction at 10 µM turned out to be 0.359. For the same compound, in test [2] (read-out: Reduction %), the inhibition at 1 µM came out at 1.61% and the inhibition at 10 µM was 5.79%.
Turning to `C[C@@H]1O[C@@H](O[C@H]2[C@H](Oc3cc(O)c4c(c3)O[C@H](c3ccc(O)cc3)CC4=O)O[C@H](CO)[C@@H](O)[C@@H]2O)[C@H](O)[C@H](O)[C@H]1O` [Compound 5, naringin], the “Viral Titer IU/ml” value in test [1] (Table S3, 1 µM) is reported as 135906.3252 IU/ml; in test [1] (Table S3, 10 µM), 36035.25597 IU/ml; in test [1] (Table S4, 0.001 µM) it was 1034210.374 IU/ml; in test [1] (Table S4, 0.01 µM), 767040.3613 IU/ml; in test [1] (Table S4, 0.1 µM), 312929.2783 IU/ml; in test [1] (Table S4, 1 µM), 135906.3252 IU/ml. For the same compound, the “Viral Titer IU/ml” value in test [1] (Table S4, 10 µM) is recorded as 36035.25597 IU/ml. The “Viral Titer Log” value is 5.133 in test [1] (Table S3, 1 µM); 4.557 in test [1] (Table S3, 10 µM); 6.015 in test [1] (Table S4, 0.001 µM); 5.885 in test [1] (Table S4, 0.01 µM); 5.495 in test [1] (Table S4, 0.1 µM); 5.133 in test [1] (Table S4, 1 µM). The “Viral Titer Log” value in test [1] (Table S4, 10 µM) was determined as 4.557. For the same compound, the Log diff in test [1] (Table S4, 0.001 µM) was -0.1056; in test [1] (Table S4, 0.01 µM) it was -0.2354; in test [1] (Table S4, 0.1 µM), -0.6248; in test [1] (Table S4, 1 µM) it was -0.987; in test [1] (Table S4, 10 µM), -1.564. Also, the “inhibition activity of COVID-19 (in words)” value in test [1] (two concentrations (1 mM and 10 μM), compared to the remdesivir positive standard) is on record as “potent inhibition activity”. Moreover, the inhibition at 1 µM turned out to be 91.4% in test [2] (Table S3, 1 µM); 89.7% in test [2] (Table S4, 1 µM); 17.2% in test [2] (setting [3]); 16.1% in test [2] (read-out: Reduction %, Table S4, 1 µM). Moreover, the inhibition at 10 µM in test [2] (Table S3, 10 µM) turned out to be 97.7%; in test [2] (Table S4, 10 µM), 97.3%; in test [2] (setting [4]) it was 26.5%; in test [2] (read-out: Reduction %, Table S4, 10 µM) it was 25.5%. The inhibition at 0.001 µM is 21.6% in test [2] (Table S4) and 1.73% in test [2] (setting [5]). In addition, the inhibition at 0.01 µM was 41.8% in test [2] (Table S4) and 3.85% in test [2] (setting [5]). In addition, the inhibition at 0.1 µM in test [2] (Table S4) was 76.3%; in test [2] (setting [5]), 10.2%. Besides, the concentration giving a half-maximal response (EC50) in test [2] (Table S4, Conc. column in µM) came out at 0.017 µM; in test [2] (serial concentration 10, 1, 0.1, 0.01, 0.001 μM) it was 0.0169 µM. Besides, the log reduction at 1 µM in test [2] stood at 1.07. The log reduction at 10 µM in test [2] is 1.64.
With `O=C(O)/C=C/c1ccc(O)cc1` [Compound 7, p-coumaric acid], the “Viral Titer IU/ml” value in test [1] (Table S3, 1 µM) is given as 439893.1485 IU/ml; in test [1] (Table S3, 10 µM), 151891.6408 IU/ml. For the same compound, the “Viral Titer Log” value is listed as 5.643 in test [1] (Table S3, 1 µM) and 5.182 in test [1] (Table S3, 10 µM). Further, the inhibition at 1 µM in test [2] (Table S3, 1 µM) is 72.2%; in test [2] (setting [3]) it was 8.96%. The inhibition at 10 µM came out at 90.4% in test [2] (Table S3, 10 µM) and 16.4% in test [2] (setting [4]). Moreover, the log reduction at 1 µM in test [2] was 0.555. In addition, the log reduction at 10 µM in test [2] came to 1.02.
